Experimental data reported in PubChem BioAssay (NCI).
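A five-concentration, 48-hour dose response in 96-well plates underlies each endpoint, interpolated linearly between surrounding concentrations. GI50: concentration for 50% inhibition of growth.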 For part of its entries the source gives two or more results. Only these are listed. An entry can have further records. A record mostly stands for its own series of concentrations, not given here; a value can be the end of its range.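 At the TGI there is no net growth.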

Experiments:
Test in all cases: NCI-60 cell line screen, 48 h
OVCAR-4 ovarian = system: OVCAR-4 ovarian
SK-MEL-5 melanoma = system: SK-MEL-5 melanoma
HL-60(TB) leukemia = system: HL-60(TB) leukemia
CAKI-1 renal = system: CAKI-1 renal
CCRF-CEM leukemia = system: CCRF-CEM leukemia
DMS 273 small cell lung = system: DMS 273 small cell lung
DLD-1 colon = system: DLD-1 colon
DMS 114 small cell lung = system: DMS 114 small cell lung
HT29 colon = system: HT29 colon
LOX IMVI melanoma = system: LOX IMVI melanoma
HCT-116 colon = system: HCT-116 colon
COLO 205 colon = system: COLO 205 colon
T-47D breast = system: T-47D breast
OVCAR-5 ovarian = system: OVCAR-5 ovarian
NCI-H23 lung = system: NCI-H23 lung
UO-31 renal = system: UO-31 renal
NCI-H460 lung = system: NCI-H460 lung
SN12C renal = system: SN12C renal

| Compound | TGI (OVCAR-4 ovarian) | TGI (SK-MEL-5 melanoma) | TGI (HL-60(TB) leukemia) | GI50 (CAKI-1 renal) | TGI (CCRF-CEM leukemia) | TGI (DMS 273 small cell lung) | TGI (DLD-1 colon) | TGI (DMS 114 small cell lung) | TGI (HT29 colon) | TGI (LOX IMVI melanoma) | TGI (HCT-116 colon) | TGI (COLO 205 colon) | GI50 (T-47D breast) | TGI (OVCAR-5 ovarian) | TGI (NCI-H23 lung) | TGI (UO-31 renal) | TGI (NCI-H460 lung) | TGI (SN12C renal) |
| --- | --- | --- | --- | --- | --- | --- | --- | --- | --- | --- | --- | --- | --- | --- | --- | --- | --- | --- |
| CC(C)[O-].CC(C)[O-].[O-]c1cccc2cccnc12.[O-]c1cccc2cccnc12.[Ti+4] | 5.74 µM and > 100 µM | 5.88 µM and > 100 µM | 456 nM and 5.51 µM | 7.17 µM and > 100 µM | – | – | – | – | – | – | – | – | – | – | – | – | – | – |
| CCOC(=O)CNC(=O)C(CSC(=O)N(C)O)NC(=O)CCC(N)C(=O)O (centres undefined) | – | – | – | – | 2 µM and > 2 mM | 1.8 µM and > 2 mM | 1.12 µM and > 2 mM | 2 µM and > 2 mM | 2 µM and > 2 mM | 1.05 µM and > 2 mM | 2 µM and > 2 mM | 2 µM and > 2 mM | – | – | – | – | – | – |
| CC[C@@]1(OC(=O)CN)C(=O)OCc2c1cc1n(c2=O)Cc2cc3c(N)c4c(cc3nc2-1)OCO4 | – | – | – | – | – | – | – | – | – | 11.1 nM and 117 nM | – | – | 0.196 nM and 18.7 nM | 112 nM and > 100 µM | 10.7 nM and 124 nM | 33.1 nM and > 100 µM | 11.2 nM and > 100 µM | 265 nM and > 100 µM |
